Data from PubChem BioAssay (NCI).
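All cell lines were grown in 96-well plates and treated with compound for 48 hours. The concentration for 50% growth inhibition is given as GI50. TGI: concentration producing complete growth inhibition.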

Tested on: NCI-H322M lung
Assay: DTP human tumour cell line panel, 48 h

CCOc1ccc(NC2=C(Cl)C(=O)c3nc(C)ccc3C2=O)cc1
GI50: 1680 nM | TGI: 3740 nM
